Source: PubChem BioAssay AID504339 (National Center for Advancing Translational Sciences (NCATS), 2011)
Where “and” joins values, the source holds several entries; their conditions need not be identical. Equal values may be shown once. About 17,000 (4.4%) of roughly 390,000 compounds were called active. This list was built around the results that the source calls inconclusive (neither active nor inactive); the mix of calls is not that of the screen. Calls come from the whole dose curve; as a rule, active = well fitted inhibition curve with a large enough effect; inconclusive = small, poorly fitted or top-dose-only effect; inactive = no such curve, though single readings can be large or run the other way. Potencies of inconclusive entries are doubtful fits and often do not repeat.

target: Lysine-specific demethylase 4A (Homo sapiens) (UniProt O75164); experiment: qHTS Assay for Inhibitors of JMJD2A-Tudor Domain; conditions: AlphaScreen JMJD2A-Tudor / H3K4me3 peptide binding; series mostly up to 114 µM; note: nearly all actives have a fitted effect of over 50% in size
% is set by controls: 0 for no effect and ±100 for the full control effect; potency is the fitted concentration of half-maximal effect; tags give direction and shape of the fitted curve.

Sequence of UniProt O75164 (O75164 whole entry, looked up, the tested form may be a part): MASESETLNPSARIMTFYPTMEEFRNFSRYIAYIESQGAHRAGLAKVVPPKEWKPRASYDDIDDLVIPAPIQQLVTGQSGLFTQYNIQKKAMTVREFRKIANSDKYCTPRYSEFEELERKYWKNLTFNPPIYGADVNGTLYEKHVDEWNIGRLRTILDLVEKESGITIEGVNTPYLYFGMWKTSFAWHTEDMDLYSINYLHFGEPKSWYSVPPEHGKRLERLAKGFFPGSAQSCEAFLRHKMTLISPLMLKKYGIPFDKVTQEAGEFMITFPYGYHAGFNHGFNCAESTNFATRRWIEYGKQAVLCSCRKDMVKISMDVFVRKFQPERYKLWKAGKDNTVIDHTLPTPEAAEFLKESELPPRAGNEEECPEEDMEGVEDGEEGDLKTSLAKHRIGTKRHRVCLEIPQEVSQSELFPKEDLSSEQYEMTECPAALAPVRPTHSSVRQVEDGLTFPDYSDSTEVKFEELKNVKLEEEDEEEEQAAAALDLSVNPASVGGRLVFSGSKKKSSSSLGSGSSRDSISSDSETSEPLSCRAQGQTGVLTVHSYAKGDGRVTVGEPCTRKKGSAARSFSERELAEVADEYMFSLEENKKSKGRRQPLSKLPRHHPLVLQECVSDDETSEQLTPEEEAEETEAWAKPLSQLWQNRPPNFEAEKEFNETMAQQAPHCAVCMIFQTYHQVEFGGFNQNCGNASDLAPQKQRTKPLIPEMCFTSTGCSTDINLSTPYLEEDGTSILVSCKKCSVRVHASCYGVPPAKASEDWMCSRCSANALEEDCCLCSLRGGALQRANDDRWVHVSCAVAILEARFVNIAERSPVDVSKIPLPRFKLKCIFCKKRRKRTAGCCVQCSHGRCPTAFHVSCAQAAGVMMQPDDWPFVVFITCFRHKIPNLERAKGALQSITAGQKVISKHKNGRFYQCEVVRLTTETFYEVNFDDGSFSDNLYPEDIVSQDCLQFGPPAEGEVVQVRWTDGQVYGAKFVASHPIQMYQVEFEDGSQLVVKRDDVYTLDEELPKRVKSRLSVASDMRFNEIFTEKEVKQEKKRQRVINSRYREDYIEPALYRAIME

Row | SMILES | Potency | activity change, negative = inhibition
1 | CC(=O)Nc1nc(=S)n(-c2ccccc2)[nH]1 | active: 17.8 µM | –
2 | CC(C)(O[C@@H]1O[C@H](CO)[C@@H](O)[C@H](O)[C@H]1O)[C@H]1Cc2cc3ccc(=O)oc3cc2O1 | inactive | –
3 | COc1ccc(OC(=O)C(C)N2C(=O)c3ccccc3C2=O)cc1 (stereo not drawn) | inactive | –
4 | Oc1ccc(CN2CCCCC2)nc1-c1ccccc1 | inactive | –
5 | CCCCCCCCc1nc(=S)[nH][nH]1 | inconclusive: 56.2 µM [inhibitor, partial curve] | –
6 | COc1cc2ccccc2cc1C(=O)NCC(c1cccs1)N(C)C (stereo not drawn) | inconclusive: 89.1 µM [inhibitor, single point] | –
7 | CC(=O)Nc1cc(C(F)(F)F)ccc1N1CCOCC1 | inactive | –
8 | C(=N\Nc1nncc2ccccc12)/c1ccccn1 | active: 79.4 µM | –
9 | CCc1ccc(N(CC)C(=O)c2sc3nc4n(c(=O)c3c2C)CCCC4)cc1 | active: 79.4 µM | –
10 | Cc1csc(SC(C)C(=O)Nc2ccc(Cl)cn2)n1 (stereo not drawn) | – | inactive: 0.763% [at 11.4 µM]
11 | Cc1c(CC(=O)N2CCN(C(=O)C3COc4ccccc4O3)CC2)c(=O)oc2c(O)c(O)ccc12 (stereo not drawn) | active: 2.82 µM | –
12 | O=C(Cn1c(=O)n(-c2ccccc2)c(=O)c2ccc(C(=O)NCc3ccc4c(c3)OCO4)cc21)Nc1ccc(F)c(Cl)c1 | inactive | –
13 | CCOC(=O)c1c(NC(=O)c2ccn(CC)n2)sc2c1CCCC2 | inactive | –
14 | CCCOc1ccc(C(=O)Nc2ccccc2[N+](=O)[O-])cc1 | active: 56.2 µM | –
15 | Oc1ccc(Br)cc1C1C=C(c2ccc3c(c2)OCO3)NC(c2cccc(F)c2)N1 (stereo not drawn) | inconclusive: 79.4 µM [inhibitor, single point] | –
16 | Cc1ccc(OCc2nnc(SCC(=O)c3ccccc3)n2Cc2ccco2)cc1 | inconclusive: 50.1 µM [inhibitor, partial curve, poor fit] | –
17 | CN(C)CCCNC(=O)c1ccc(/C=N/O)nc1 | active: 1.41 µM | –
18 | CN(C)CCNc1oc(-c2cccc(Cl)c2)nc1C#N | inconclusive: 89.1 µM [inhibitor, partial curve] | –
19 | CCn1nc(C)cc1-c1nnc(Sc2ncc([N+](=O)[O-])s2)n1C | inconclusive: 22.4 µM [inhibitor, single point] | –
20 | O=C(N/N=C/c1ccc(O)c2ncccc12)c1cccc(Br)c1 | active: 22.4 µM | –

Row | SMILES | Potency | activity change, negative = inhibition
21 | CCCCN(Cc1ccco1)S(=O)(=O)c1ccc(-c2ccc(=O)[nH]n2)s1 | inconclusive: 15.8 µM [inhibitor, full curve, poor fit] | –
22 | C=CCNC(=S)NNC(=O)COc1ccc(Br)cc1 | inconclusive: 28.2 µM [inhibitor, single point] | –
23 | CN(C)CCN(C(=O)c1ccc2ccccc2c1)c1nc2c(F)cc(F)cc2s1 | inconclusive: 35.5 µM [inhibitor, partial curve] | –
24 | Oc1ccc(Nc2nc(-c3cccnc3)cs2)cc1 | inconclusive: 56.2 µM [inhibitor, partial curve] | –
25 | CCOC(=O)c1cc(C)n(Cc2cccc(OC)c2OC)c1C | inconclusive: 79.4 µM [inhibitor, partial curve] | –
26 | Cc1cc(OCc2nnc(SC(C)C(=O)O)n2-c2ccccc2)ccc1Cl (stereo not drawn) | inconclusive: 100 µM [inhibitor, single point] | –
27 | COc1ccc(S(=O)(=O)NC(CC(=O)NCc2ccco2)C(C)C)cc1 (stereo not drawn) | inconclusive: 79.4 µM [inhibitor, single point] | –
28 | Cc1ccc(C(=O)Nc2ccc3oc(-c4cc(Br)ccc4Cl)nc3c2)cc1 | inconclusive: 100 µM [inhibitor, single point] | –
29 | Cc1c(C(=O)Nc2nc(-c3ccccn3)cs2)oc2ccccc12 | inconclusive: 56.2 µM [inhibitor, partial curve] | –
30 | O=c1cc2nc(-c3ccccc3)nc(SCCOc3ccc(Cl)cc3)n2[nH]1 | active: 56.2 µM | –
31 | COc1ccc(C(=O)Nc2ccc3oc(-c4cc(Cl)ccc4Cl)nc3c2)cc1Br | inconclusive: 10 µM [inhibitor, partial curve, poor fit] | –
32 | COC(=O)c1ccccc1S(=O)(=O)NNC(=O)c1nn(C)c(=O)c2ccccc12 | inconclusive: 12.6 µM [inhibitor, partial curve] | –
33 | CC(C)Oc1ccccc1C1CC(=O)Nc2cc3c(cc21)OCO3 (stereo not drawn) | active: 56.2 µM | –
34 | Fc1ccccc1NC(=S)N1CCN(c2ccccn2)CC1 | inactive | –
35 | CC=Cc1cc(OC)c2c(c1)C(C)C(c1ccc(O)c(OC)c1)O2 (stereo not drawn) | inconclusive: 39.8 µM [inhibitor, partial curve] | –
36 | Cc1noc(NS(=O)(=O)c2ccc(NC(=O)Nc3ccc(Cl)c(Cl)c3)cc2)c1C | inconclusive: 79.4 µM [inhibitor, partial curve] | –
37 | CCc1nnc(NC(=O)[C@@H]2CCCN2S(=O)(=O)c2ccc3c(c2)OCCO3)s1 | inactive | –
38 | O=C(Nc1ccccc1N1CCN(C(=O)c2ccc(Cl)cc2)CC1)c1cc(Br)ccc1Cl | inconclusive: 70.8 µM [inhibitor, partial curve, poor fit] | –
39 | Cn1c(=O)c(-c2cc(Br)ccc2N)nc2ccccc21 | inconclusive: 31.6 µM [inhibitor, full curve, poor fit] | –
40 | COc1ccccc1N=Nc1nc(-c2ccccc2)c(-c2ccccc2)[nH]1 | active: 7.08 µM | –

Row | SMILES | Potency | activity change, negative = inhibition
41 | COc1ccc2nc3ccccc3nc2c1N | active: 39.8 µM | –
42 | CCOc1ccc(C2=Nn3c(nnc3-c3ccccc3OC)SC2)cc1 | inconclusive: 89.1 µM [inhibitor, single point] | –
43 | CCCn1c(=O)c2ccccc2n2c(=S)[nH]nc12 | active: 1.41 µM | –
44 | C=CCOc1c(Br)cc(/C=C2/NC(=S)N(C(C)=O)C2=O)cc1OC | inconclusive: 39.8 µM [inhibitor, partial curve] | –
45 | O=S(=O)(c1cccc(-c2n[nH]c(=S)n2Cc2ccccc2)c1)N1CCOCC1 | active: 20 µM | –
46 | Cc1ccc(-c2nnc3ccc(SCC(N)=O)nn23)cc1 | inconclusive: 4.47 µM [inhibitor, single point] | –
47 | CCOc1ccc(-n2c(C)cc(/C=N/Nc3nc(C)cc(=O)[nH]3)c2C)cc1 | inconclusive: 2.24 µM [inhibitor, full curve, poor fit] | –
48 | Cc1ccc(/C=C/c2nc3sc(C(=O)O)c(C)c3c(=O)[nH]2)cc1[N+](=O)[O-] | inconclusive: 79.4 µM [inhibitor, single point] | –
49 | Oc1ccc(Nc2ccc3ccccc3c2)cc1 | active: 39.8 µM | –
50 | Cc1ccc(/C=N/n2c(-c3ccccc3)n[nH]c2=S)cc1 | active: 79.4 µM | –
51 | c1cnc2c(c1)ccc1cccnc12 | active: 28.2 µM and active: 7.94 µM | –
52 | Cc1c(C(=O)N2CCN(c3ccc(F)cc3)CC2)sc2ncnc(N3CCN(c4ccccn4)CC3)c12 | inconclusive: 44.7 µM [inhibitor, partial curve] | –
53 | COc1cccc(-c2noc(-c3ccc4c(c3)OCO4)n2)c1 | inactive | –
54 | CC[n+]1ccccc1/C=C/c1ccc(N(C)C)cc1 | inconclusive: 5.62 µM [inhibitor, single point] | –
55 | CC(C)N(C(=O)[C@H]1CC(CC(=O)NCC23CC4CC(CC(C4)C2)C3)C(=O)N2CCc3c([nH]c4ccccc34)[C@]12C)C(C)C (stereo partly drawn) | inconclusive: 31.6 µM [inhibitor, full curve] | –
56 | Cc1ccc(CNC(=O)CCc2nnc(Cc3ccc(-c4ccccc4)cc3)o2)o1 | inactive | –
57 | COc1ccc(OC)c(C2=Nn3c(nnc3-c3cc(OC)ccc3OC)SC2)c1 | inconclusive: 56.2 µM [inhibitor, partial curve, poor fit] | –
58 | CCCc1n(CC(O)COCC2CC=CCC2)c2ccccc2[n+]1C (stereo not drawn) | inconclusive: 39.8 µM [inhibitor, single point] | –
